Data reported in article PMC3279423.
Results are given in words; binding and its absence hold for the method and conditions named. Some entries that bind do so weakly or less than the wild type.

Amino acid sequences for entries named in this document (tags omitted). A change or cut given only in a name is not applied to a line headed by its entry. Residues count along the entry.
UniProt Q99816: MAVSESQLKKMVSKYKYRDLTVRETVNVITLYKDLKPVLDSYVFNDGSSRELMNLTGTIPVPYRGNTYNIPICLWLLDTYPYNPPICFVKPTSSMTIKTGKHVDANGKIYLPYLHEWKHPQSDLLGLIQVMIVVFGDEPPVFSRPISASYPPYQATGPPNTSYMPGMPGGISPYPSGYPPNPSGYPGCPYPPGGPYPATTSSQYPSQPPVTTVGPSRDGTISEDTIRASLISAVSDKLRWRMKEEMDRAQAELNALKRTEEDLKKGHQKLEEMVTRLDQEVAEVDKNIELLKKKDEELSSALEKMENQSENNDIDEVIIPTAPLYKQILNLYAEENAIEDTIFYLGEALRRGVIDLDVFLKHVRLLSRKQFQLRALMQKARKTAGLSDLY
TSG101 235-313 (pVJL10-TSG101 235-313): residues 235-313 of Q99816
TSG101 235-273 (pVJL10-TSG101 235-273): residues 235-273 of Q99816
TSG101 235-257 (pVJL10-TSG101 235-257): residues 235-257 of Q99816
TSG101 274-313 (pVJL10-TSG101 274-313): residues 274-313 of Q99816

Key:
Test in all cases: two-hybrid; pVJL10 (bait) and pGADGH (prey) constructs co-transformed into S. cerevisiae L40; growth on medium lacking tryptophan, leucine and histidine with 1 mM 3-AT, 30°C
[1] = molecular target: TSG101 235-257 (pVJL10-TSG101 235-257) (UniProt Q99816)
[2] = molecular target: TSG101 V274P (pVJL10-TSG101 V274P) (UniProt Q99816)
[3] = molecular target: TSG101 274-290 (pVJL10-TSG101 274-290) (UniProt Q99816)
[4] = molecular target: TSG101 235-273 (pVJL10-TSG101 235-273) (UniProt Q99816)
[5] = molecular target: TSG101 235-313 (pVJL10-TSG101 235-313) (UniProt Q99816)
[6] = molecular target: TSG101 K257P (pVJL10-TSG101 K257P) (UniProt Q99816)
[7] = molecular target: TSG101 (tumor susceptibility gene 101), pVJL10-TSG101 two-hybrid bait (UniProt Q99816)
[8] = molecular target: TSG101 N287P (pVJL10-TSG101 N287P) (UniProt Q99816)
[9] = molecular target: TSG101 274-313 (pVJL10-TSG101 274-313) (UniProt Q99816)

binding [1]: no binding
binding [2]: no binding
binding [3]: no binding
binding [4]: no binding
binding [5]: binds
binding [6]: no binding
binding [7]: binds
binding [8]: binds
binding [9]: no binding
B1: FIP4, pGADGH/FIP4 two-hybrid prey (protein, UniProt Q86YS3 1-637)
chain: MAGGAGWSGAPAALLRSVRRLREVFEVCGRDPDGFLRVERVAALGLRFGQGEEVEKLVKYLDPNDLGRINFKDFCRGVFAMKGCEELLKDVLSVESAGTLPCAPEIPDCVEQGSEVTGPTFADGELIPREPGFFPEDEEEAMTLAPPEGPQELYTDSPMESTQSLEGSVGSPAEKDGGLGGLFLPEDKSLVHTPSMTTSDLSTHSTTSLISNEEQFEDYGEGDDVDCAPSSPCPDDETRTNVYSDLGSSVSSSAGQTPRKMRHVYNSELLDVYCSQCCKKINLLNDLEARLKNLKANSPNRKISSTAFGRQLMHSSNFSSSNGSTEDLFRDSIDSCDNDITEKVSFLEKKVTELENDSLTNGDLKSKLKQENTQLVHRVHELEEMVKDQETTAEQALEEEARRHREAYGKLEREKATEVELLNARVQQLEEENTELRTTVTRLKSQTEKLDEERQRMSDRLEDTSLRLKDEMDLYKRMMDKLRQNRLEFQKEREATQELIEDLRKELEHLQMYKLDCERPGRGRSASSGLGEFNARAREVELEHEVKRLKQENYKLRDQNDDLNGQILSLSLYEAKNLFAAQTKAQSLAAEIDTASRDELMEALKEQEEINFRLRQYMDKIILAILDHNPSILEIKH
